Our source for the relative growth values is the supplement of paper PMC9446081.

Out of some 39,000 compounds screened, about 220 (0.56%) showed activity. This is one part of the list.
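Further: static incubation at 37 °C against the wild-type strain, values averaged over two biological replicates.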

The test system of the test is Escherichia coli K-12 BW25113. Kind of test: relative growth (OD600 normalised to plate interquartile mean) (fraction); higher = less growth inhibition, active = 0.2 or less. Particulars: 50 µM; LB; incubation time: overnight (16-24 h).
In the case of `NCCn1nc([C@H]2CCN(C(=O)c3csc4c3CCCC4)C2)c2nccnc21`, the relative growth is inactive: 1.02.

As for `Cc1ccc(S(=O)(=O)N(C)C[C@H]2OCCCC[C@H](C)Oc3ccc(NC(=O)CCC(F)(F)F)cc3C(=O)N([C@@H](C)CO)C[C@@H]2C)cc1`, the relative growth was inactive: 0.99.

On to `Cc1ccc(S(=O)(=O)N(C)C[C@H]2OCCCC[C@@H](C)Oc3ccc(NC(=O)c4ccccc4)cc3C(=O)N([C@@H](C)CO)C[C@@H]2C)cc1`, for which the relative growth was inactive: 1.05.

Take `C[C@H](CO)N1C[C@H](C)[C@H](CN(C)Cc2ccc(C(F)(F)F)cc2)OCc2ccccc2-c2c(n(C)c3ccccc23)C1=O`: the relative growth was inactive: 1.04.

Regarding `Cc1ccc(S(=O)(=O)Nc2ccc3c(c2)C(=O)N([C@@H](C)CO)C[C@H](C)[C@@H](CN(C)S(=O)(=O)c2ccccc2)O3)cc1`, the relative growth is inactive: 1.

With `C[C@@H]1CN([C@@H](C)CO)C(=O)c2cc(NC(=O)Cc3ccccc3)ccc2O[C@@H](C)CCCCO[C@H]1CN(C)Cc1ccc(C(F)(F)F)cc1`, the relative growth was inactive: 1.02.

On to `C[C@H]1[C@H]2[C@H](Cc3ccccc3)NC(=O)[C@]23C(=O)N[C@H](Cc2ccccc2)C(=O)N2CCC[C@H]2C(=O)NC/C=C\C/C=C/[C@@H]3[C@@H]2O[C@]12C`, for which the relative growth is inactive: 1.01.

For `Cn1cnc(CCNC(=O)C[C@H]2CC[C@@H]3[C@H](COC[C@H](O)CN3C(=O)Nc3ccc(Cl)cc3)O2)c1`, the relative growth was inactive: 0.957.

For the compound `CC(C)NC(=O)Nc1ccc2c(c1)C(=O)N([C@H](C)CO)C[C@H](C)[C@H](CN(C)S(=O)(=O)c1ccccc1)O2`, the relative growth was inactive: 0.975.

For `COc1ccc2c3c([nH]c2c1)[C@H](CO)N(C[C@]13CCN(CC1)S(=O)(=O)C)C(=O)Nc1ccc(cc1)F`, the relative growth is inactive: 1.01.

Turning to `C[C@H]1CN([C@@H](C)CO)C(=O)c2cccc(NC(=O)c3ccncc3)c2O[C@@H]1CN(C)Cc1ccncc1`, the relative growth is inactive: 0.998.

Turning to `CO[C@@H]1CN(C)C(=O)c2cc(NC(=O)c3nc4ccccc4s3)ccc2OC[C@@H](C)N(Cc2ccccc2)C[C@H]1C`, the relative growth was inactive: 1.06.

For the compound `Cc1ccc(S(=O)(=O)N(C)C[C@@H]2Oc3ccc(NC(=O)CCCN(C)C)cc3CC(=O)N([C@H](C)CO)C[C@@H]2C)cc1`, the relative growth is inactive: 0.994.

`C[C@@H]1CN([C@@H](C)CO)C(=O)Cc2cc(NS(C)(=O)=O)ccc2O[C@@H]1CN(C)S(=O)(=O)c1ccc(Cl)cc1`: the relative growth is inactive: 0.984.

Turning to `C[C@@H]1CCCCO[C@H](CN(C)Cc2ccc(C(F)(F)F)cc2)[C@H](C)CN([C@H](C)CO)C(=O)c2cc(NS(=O)(=O)c3cn(C)cn3)ccc2O1`, the relative growth is inactive: 0.979.

With `C[C@@H]1CN([C@@H](C)CO)C(=O)c2cc(NS(=O)(=O)c3ccc(Cl)cc3)ccc2O[C@@H](C)CCCCO[C@H]1CN(C)S(=O)(=O)c1cccs1`, the relative growth was inactive: 1.04.

Turning to `C[C@H]1CN([C@@H](C)CO)C(=O)Cc2cc(NC(=O)NC3CCCCC3)ccc2O[C@@H]1CN(C)Cc1ccc(C(=O)Nc2ccccc2N)cc1`, the relative growth is inactive: 0.99.

In the case of `Nc1cccc2c1C(=O)N([C@H]1CCC(=O)NC1=O)C2=O`, the relative growth was inactive: 1.02.

Turning to `O=C(C[C@H]1CC[C@H]2[C@@H](COC[C@@H](O)CN2C(=O)c2ccccn2)O1)NC1CCC1`, the relative growth is inactive: 0.974.

Regarding `Cc1ccc(S(=O)(=O)Nc2ccc3c(c2)C(=O)N([C@@H](C)CO)C[C@H](C)[C@@H](CN(C)Cc2ccc4c(c2)OCO4)OCCCC[C@H](C)O3)cc1`, the relative growth was inactive: 0.986.

In the case of `C[C@@H]1CN([C@H](C)CO)C(=O)c2cc(NC(=O)c3ccccc3)ccc2O[C@@H](C)CCCCO[C@@H]1CN(C)Cc1ccc(Cl)c(Cl)c1`, the relative growth was inactive: 1.04.

`C[C@H](CO)N1C[C@H](C)[C@H](CN(C)Cc2ccc(Oc3ccccc3)cc2)Oc2ccc(NS(=O)(=O)c3ccc(F)cc3)cc2C1=O`: the relative growth is inactive: 0.977.

Turning to `C[C@H]1CN([C@@H](C)CO)S(=O)(=O)c2ccc(Br)cc2O[C@@H]1CN(C)S(=O)(=O)c1ccc(F)cc1`, the relative growth was inactive: 0.998.

As to `CC(C)NC(=O)Nc1cccc2c1O[C@H](CN(C)S(=O)(=O)c1ccccc1)[C@@H](C)CN([C@@H](C)CO)C2=O`, the relative growth is inactive: 1.01.

As to `COc1nc(C#N)nc(N2CCCCC2)n1`, the relative growth is inactive: 0.975.

Take `CCCC1OC2CC3C4CCC5=CC(=O)C=CC5(C)C4C(O)CC3(C)C2(C(=O)CO)O1` (stereo not drawn): the relative growth was inactive: 1.05.

Consider `O=C(CN1CCOCC1)N[C@H]1CC[C@H](CCNC(=O)C2CCC2)O[C@H]1CO`, for which the relative growth is inactive: 0.996.

As for `C=C(/C=C/CNS(=O)(=O)c1ccc(C)cc1)[C@H](O)[C@H]1CCCN1S(=O)(=O)c1ccccc1[N+](=O)[O-]`, the relative growth is inactive: 0.986.

Regarding `C[C@H]1CN([C@@H](C)CO)C(=O)Cc2cc(NC(=O)Nc3cccc4ccccc34)ccc2O[C@@H]1CN(C)Cc1ccccc1`, the relative growth was inactive: 1.03.

In the case of `C[C@@H]1CN([C@@H](C)CO)C(=O)c2cc(NC(=O)Nc3ccc(F)cc3)ccc2O[C@@H](C)CCCCO[C@H]1CN(C)Cc1ccc(C(=O)O)cc1`, the relative growth is inactive: 1.02.

Regarding `O=C1N[C@@H](Cc2c[nH]c3ccccc23)COC(=O)[C@H](Cc2ccc(F)cc2)CCC=CC[C@H]1CC(=O)N(CCO)Cc1ccccc1`, the relative growth was inactive: 1.01.

Consider `CN1C(=O)c2cc(NC(=O)c3cnccn3)ccc2OC[C@H]2O[C@@H](CC(=O)NCC3CCCCC3)CC[C@@H]21`, for which the relative growth was inactive: 0.987.

For `C[C@@H]1CCCCO[C@H](CN(C)C(=O)Nc2cccc3ccccc23)[C@H](C)CN([C@@H](C)CO)C(=O)c2cc(NC(=O)NC3CCCCC3)ccc2O1`, the relative growth was inactive: 1.03.

As for `O=C(C[C@H]1CC[C@H]2[C@@H](COC[C@@H](O)CN2S(=O)(=O)c2ccccc2)O1)NCc1ccc2c(c1)OCO2`, the relative growth was inactive: 0.998.

`CC(=O)N1CCCN(S(=O)(=O)c2cn(C)c(=O)n(C)c2=O)CC1`: the relative growth is inactive: 1.01.

Take `C[C@@H]1CN([C@@H](C)CO)C(=O)Cc2cc(NS(=O)(=O)c3ccc(F)cc3)ccc2O[C@@H]1CN(C)S(=O)(=O)c1cccs1`: the relative growth was inactive: 0.987.

In the case of `C[C@H](CO)N1C[C@H](C)[C@H](CN(C)C(=O)Nc2ccc(C(F)(F)F)cc2)Oc2ccc(NC(=O)NC3CCCCC3)cc2C1=O`, the relative growth is inactive: 1.

As to `C[C@H]1CN([C@@H](C)CO)C(=O)c2cccc(NS(=O)(=O)c3ccc(Cl)cc3)c2O[C@@H]1CN(C)Cc1ccc(-c2ccccc2)cc1`, the relative growth was inactive: 0.998.

`C[C@H]1CN([C@@H](C)CO)S(=O)(=O)c2ccc(Br)cc2O[C@H]1CN(C)C(=O)Cc1ccncc1`: the relative growth was inactive: 1.01.

For the compound `COc1ccc(NC(=O)Nc2ccc3c(c2)C(=O)N([C@@H](C)CO)C[C@@H](C)[C@@H](CN(C)C(=O)Cc2ccccc2)OCCCC[C@@H](C)O3)cc1`, the relative growth was inactive: 0.984.

Take `Cc1noc(C)c1S(=O)(=O)Nc1ccc2c(c1)C(=O)N([C@@H](C)CO)C[C@@H](C)[C@@H](CN(C)Cc1ccc(Oc3ccccc3)cc1)O2`: the relative growth was inactive: 0.987.

Regarding `CC(C)CS(=O)(=O)C1CNC1`, the relative growth was inactive: 1.01.

As for `Cn1c(=O)c2c(nc(Cl)n2CCN2C(=O)CNC2=O)n(C)c1=O`, the relative growth is inactive: 0.863.

Turning to `C[C@H]1CN([C@@H](C)CO)C(=O)c2cc(NS(=O)(=O)c3cn(C)cn3)ccc2O[C@@H]1CN(C)S(C)(=O)=O`, the relative growth is inactive: 0.971.

With `C=CCNC(=O)[C@@H]1[C@H]2C(=O)O[C@H](c3ccccc3)[C@H](c3ccccc3)N2[C@H](c2ccc(O)cc2)[C@@]12C(=O)N(C(=O)OCCOC)c1ccc(C#Cc3ccc(OC)cc3)cc12`, the relative growth was inactive: 1.06.

For `CC(=O)N[C@H]1[C@H]([C@H](O)[C@H](O)CO)O[C@](O)(C(=O)O)C[C@@H]1O`, the relative growth is inactive: 1.

On to `CC#CCn1c(N2CCC[C@@H](N)C2)nc2c1c(=O)n(Cc1nc(C)c3ccccc3n1)c(=O)n2C`, for which the relative growth is inactive: 1.01.

Regarding `COCC(=O)Nc1ccc2c(c1)OC[C@H](C)N(C(=O)Cc1cccnc1)C[C@@H](C)[C@H](OC)CN(C)C2=O`, the relative growth is inactive: 0.932.

Consider `O=S(=O)(NCC[C@H]1CC[C@@H](NS(=O)(=O)c2cccc(Cl)c2)[C@H](CO)O1)c1cccc(F)c1`, for which the relative growth is inactive: 1.01.

Regarding `C[C@@H]1CN([C@@H](C)CO)C(=O)c2cc(NC(=O)Cc3ccccc3)ccc2O[C@H]1CN(C)S(=O)(=O)c1cccs1`, the relative growth was inactive: 1.

Take `C[C@H]1CN([C@@H](C)CO)C(=O)c2cccc(NC(=O)CCCCCC(=O)Nc3ccccc3N)c2O[C@H]1CN(C)Cc1ccc(C(F)(F)F)cc1`: the relative growth was inactive: 1.03.

As for `CO[C@@H]1CN(C)C(=O)c2ccc(NS(=O)(=O)c3ccccc3C)cc2OC[C@@H](C)N(S(C)(=O)=O)C[C@H]1C`, the relative growth was inactive: 0.995.

On to `COc1ccc(NC(=O)Nc2ccc3c(c2)C(=O)N([C@H](C)CO)C[C@H](C)[C@@H](CN(C)Cc2ccncc2)OCCCC[C@H](C)O3)cc1`, for which the relative growth is inactive: 0.981.

`Cc1ccc(S(=O)(=O)N(C)C[C@H]2OCCCC[C@@H](C)Oc3ccc(NS(=O)(=O)c4ccc(Cl)cc4)cc3C(=O)N([C@@H](C)CO)C[C@@H]2C)cc1`: the relative growth is inactive: 0.999.

`C[C@H](CO)N1C[C@H](C)[C@@H](CN(C)Cc2ccc(C(=O)O)cc2)Oc2ccc(NS(C)(=O)=O)cc2CC1=O`: the relative growth is inactive: 1.02.

As for `C[C@H](CO)N1C[C@H](C)[C@@H](CN(C)CC2CC2)Oc2ccc(NS(=O)(=O)c3ccccc3)cc2C1=O`, the relative growth is inactive: 0.984.

In the case of `CCN1[C@@H]2c3ccc(-c4cccnc4)c(=O)n3C[C@@H]2[C@@H](CO)[C@@H]1C(=O)NCCc1cn(C)cn1`, the relative growth is inactive: 1.

As for `CN(C)C(=O)c1ccc(-c2cccc(-c3nc(C(=O)NCc4ccccc4)cc4c3[C@@H](CCO)N([S@@](=O)C(C)(C)C)C4)c2)cc1`, the relative growth is inactive: 1.05.
